Reference: the supplement of paper PMC10037445
Over roughly 2,900 compounds, “NF-kB SEAP reporter activity, fold change vs agonist alone” has its median near 0.99; the highest 2% begin near 2.6. This is one part of the list.

Columns and labels:
RAW-Dual [1] = test: NF-kB SEAP reporter activity, fold change vs agonist alone; cytotoxicity flag (confluency mask): not cytotoxic; higher = enhanced NF-kB activity
Method in brief: (§1)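 RAW-Dual macrophages were seeded in DMEM at 50,000 cells/well in 384-well plates, given 50 nL of library stock by pin tool, and given a PRR agonist 1 h later. Plates were held at 37 °C, 5% CO2 for 20 hours, after which supernatant was read for IRF by QuantiLuc luminescence and for NF-κB by QuantiBlue absorbance at 620 nm. Reporter activity is expressed as fold change over wells that received agonist alone. A well was called cytotoxic when IncuCyte confluency fell below 70% of agonist controls in both mask sets.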

RAW-Dual [2] = test: NF-kB SEAP reporter activity, fold change vs agonist alone; higher = enhanced NF-kB activity; details: cytotoxicity flag (confluency mask): not cytotoxic
Method in brief: as §1

[3] = agonist: ODN 1826 (TLR9) 0.5 ug/mL
[4] = agonist: Pam2CSK4 (TLR2/6) 0.1 ug/mL
[5] = agonist: Pam3CSK4 (TLR2/1) 0.1 ug/mL
[6] = library stock concentration (final ~1000-fold dilution): 10 mM, agonist: Imiquimod (TLR7) […]
[7] = library stock concentration (final ~1000-fold dilution): 10 mM, agonist: MPLA (TLR4) […]

Cc1cc(Cl)ccc1OCCCC(=O)NO (library stock concentration (final ~1000-fold dilution): 10 mM)
NF-kB SEAP reporter activity (RAW-Dual [1]; agonist: LPS (TLR4) 0.1 ug/mL): 1.51
NF-kB SEAP reporter activity (RAW-Dual [1]; [3]): 0.823
NF-kB SEAP reporter activity (RAW-Dual [1]; [4]): 0.939
NF-kB SEAP reporter activity (RAW-Dual [1]; [5]): 0.726

Cc1cc(Cl)ccc1OCCCC(=O)NO
NF-kB SEAP reporter activity (RAW-Dual [2]; [6]): 1.35
NF-kB SEAP reporter activity (RAW-Dual [2]; [7]): 1.31

CN(C)CCOc1ccc(-c2nc(-c3ccncc3)c(-c3ccc4c(c3)CC/C4=N\O)[nH]2)cc1 (library stock concentration (final ~1000-fold dilution): 10 mM)
NF-kB SEAP reporter activity (RAW-Dual [1]; agonist: LPS (TLR4) 0.1 ug/mL): 5
NF-kB SEAP reporter activity (RAW-Dual [1]; [3]): 0.964
NF-kB SEAP reporter activity (RAW-Dual [1]; [4]): 1.49
NF-kB SEAP reporter activity (RAW-Dual [1]; [5]): 0.882

CN(C)CCOc1ccc(-c2nc(-c3ccncc3)c(-c3ccc4c(c3)CC/C4=N\O)[nH]2)cc1
NF-kB SEAP reporter activity (RAW-Dual [2]; [6]): 0.946
NF-kB SEAP reporter activity (RAW-Dual [2]; [7]): 1.02

COc1ccc(-c2oc3c(CC=C(C)C)c(OC4OC(CO)C(O)C(O)C4O)cc(O)c3c(=O)c2OC2OC(C)C(O)C(O)C2O)cc1 (configuration not stated) (library stock concentration (final ~1000-fold dilution): 10 mM)
NF-kB SEAP reporter activity (RAW-Dual [1]; agonist: LPS (TLR4) 0.1 ug/mL): 1.57
NF-kB SEAP reporter activity (RAW-Dual [1]; [3]): 0.992
NF-kB SEAP reporter activity (RAW-Dual [1]; [4]): 1.14
NF-kB SEAP reporter activity (RAW-Dual [1]; [5]): 1.28

COc1ccc(-c2oc3c(CC=C(C)C)c(OC4OC(CO)C(O)C(O)C4O)cc(O)c3c(=O)c2OC2OC(C)C(O)C(O)C2O)cc1 (configuration not stated)
NF-kB SEAP reporter activity (RAW-Dual [2]; [6]): 0.89
NF-kB SEAP reporter activity (RAW-Dual [2]; [7]): 1.13

O=C1Cc2c([nH]c3ccc(Br)cc23)-c2ccccc2N1
NF-kB SEAP reporter activity (RAW-Dual [2]; [6]): 1.42
NF-kB SEAP reporter activity (RAW-Dual [2]; [7]): 1.61

O=C1Cc2c([nH]c3ccc(Br)cc23)-c2ccccc2N1 (library stock concentration (final ~1000-fold dilution): 10 mM)
NF-kB SEAP reporter activity (RAW-Dual [1]; agonist: LPS (TLR4) 0.1 ug/mL): 1.86
NF-kB SEAP reporter activity (RAW-Dual [1]; [3]): 1.85
NF-kB SEAP reporter activity (RAW-Dual [1]; [4]): 1.54
NF-kB SEAP reporter activity (RAW-Dual [1]; [5]): 1.65

CCc1c(O)cc(O)c(C(=O)c2ccc(OCCN3CCOCC3)c(OC)c2)c1CC(=O)N(CCOC)CCOC
NF-kB SEAP reporter activity (RAW-Dual [2]; [6]): 0.27
NF-kB SEAP reporter activity (RAW-Dual [2]; [7]): 0.417

CCc1c(O)cc(O)c(C(=O)c2ccc(OCCN3CCOCC3)c(OC)c2)c1CC(=O)N(CCOC)CCOC (library stock concentration (final ~1000-fold dilution): 10 mM)
NF-kB SEAP reporter activity (RAW-Dual [1]; agonist: LPS (TLR4) 0.1 ug/mL): 0.245
NF-kB SEAP reporter activity (RAW-Dual [1]; [3]): 0.328
NF-kB SEAP reporter activity (RAW-Dual [1]; [4]): 0.239
NF-kB SEAP reporter activity (RAW-Dual [1]; [5]): 0.221

Cc1coc2c1C(=O)C(=O)c1c-2ccc2c1CCCC2(C)C
NF-kB SEAP reporter activity (RAW-Dual [2]; [6]): 0.798
NF-kB SEAP reporter activity (RAW-Dual [2]; [7]): 0.857

Cc1coc2c1C(=O)C(=O)c1c-2ccc2c1CCCC2(C)C (library stock concentration (final ~1000-fold dilution): 10 mM)
NF-kB SEAP reporter activity (RAW-Dual [1]; agonist: LPS (TLR4) 0.1 ug/mL): 0.59
NF-kB SEAP reporter activity (RAW-Dual [1]; [3]): 0.814
NF-kB SEAP reporter activity (RAW-Dual [1]; [4]): 0.784
NF-kB SEAP reporter activity (RAW-Dual [1]; [5]): 1.03

C=CC(=O)NC1CCOCC1Nc1ncc2cc(-c3c(Cl)c(OC)cc(OC)c3Cl)ccc2n1 (configuration not stated)
NF-kB SEAP reporter activity (RAW-Dual [2]; [6]): 0.68
NF-kB SEAP reporter activity (RAW-Dual [2]; [7]): 0.869

C=CC(=O)NC1CCOCC1Nc1ncc2cc(-c3c(Cl)c(OC)cc(OC)c3Cl)ccc2n1 (configuration not stated) (library stock concentration (final ~1000-fold dilution): 10 mM)
NF-kB SEAP reporter activity (RAW-Dual [1]; agonist: LPS (TLR4) 0.1 ug/mL): 0.691
NF-kB SEAP reporter activity (RAW-Dual [1]; [3]): 0.827
NF-kB SEAP reporter activity (RAW-Dual [1]; [4]): 0.34
NF-kB SEAP reporter activity (RAW-Dual [1]; [5]): 0.478

Cl.Cn1cc(C(=O)Nc2ccc3c(c2)OCCO3)c2ccccc2c1=O (library stock concentration (final ~1000-fold dilution): 10 mM)
NF-kB SEAP reporter activity (RAW-Dual [1]; agonist: LPS (TLR4) 0.1 ug/mL): 2.21
NF-kB SEAP reporter activity (RAW-Dual [1]; [3]): 1.48
NF-kB SEAP reporter activity (RAW-Dual [1]; [4]): 1.09
NF-kB SEAP reporter activity (RAW-Dual [1]; [5]): 1.29

Cl.Cn1cc(C(=O)Nc2ccc3c(c2)OCCO3)c2ccccc2c1=O
NF-kB SEAP reporter activity (RAW-Dual [2]; [6]): 1.2
NF-kB SEAP reporter activity (RAW-Dual [2]; [7]): 1.41

Cn1cc(Nc2nccc(N3CC4CCC(C3)N4C(=O)C3CC3(F)F)n2)cn1 (configuration not stated)
NF-kB SEAP reporter activity (RAW-Dual [2]; [6]): 1.19
NF-kB SEAP reporter activity (RAW-Dual [2]; [7]): 0.995

Cn1cc(Nc2nccc(N3CC4CCC(C3)N4C(=O)C3CC3(F)F)n2)cn1 (configuration not stated) (library stock concentration (final ~1000-fold dilution): 10 mM)
NF-kB SEAP reporter activity (RAW-Dual [1]; agonist: LPS (TLR4) 0.1 ug/mL): 0.973
NF-kB SEAP reporter activity (RAW-Dual [1]; [3]): 1.3
NF-kB SEAP reporter activity (RAW-Dual [1]; [4]): 1.69
NF-kB SEAP reporter activity (RAW-Dual [1]; [5]): 2.02

Oc1cc2c(cc1O)CN(C(=S)NCCc1ccc(Cl)cc1)CCC2 (library stock concentration (final ~1000-fold dilution): 10 mM)
NF-kB SEAP reporter activity (RAW-Dual [1]; agonist: LPS (TLR4) 0.1 ug/mL): 0.434
NF-kB SEAP reporter activity (RAW-Dual [1]; [3]): 0.417
NF-kB SEAP reporter activity (RAW-Dual [1]; [4]): 0.246
NF-kB SEAP reporter activity (RAW-Dual [1]; [5]): 0.381

Oc1cc2c(cc1O)CN(C(=S)NCCc1ccc(Cl)cc1)CCC2
NF-kB SEAP reporter activity (RAW-Dual [2]; [6]): 1.19
NF-kB SEAP reporter activity (RAW-Dual [2]; [7]): 0.993

COc1ccc(NC(=O)c2ccc(C(=N)N(C)C)cc2)c(C(=O)Nc2ccc(Cl)cn2)c1 (library stock concentration (final ~1000-fold dilution): 10 mM)
NF-kB SEAP reporter activity (RAW-Dual [1]; agonist: LPS (TLR4) 0.1 ug/mL): 1.02
NF-kB SEAP reporter activity (RAW-Dual [1]; [3]): 0.92
NF-kB SEAP reporter activity (RAW-Dual [1]; [4]): 0.94
NF-kB SEAP reporter activity (RAW-Dual [1]; [5]): 0.875

COc1ccc(NC(=O)c2ccc(C(=N)N(C)C)cc2)c(C(=O)Nc2ccc(Cl)cn2)c1
NF-kB SEAP reporter activity (RAW-Dual [2]; [7]): 1.09

CCS(=O)(=O)N1CCC(C(C)n2c(C)c(C(=O)NCc3c(OC)cc(C)[nH]c3=O)c3ccccc32)CC1 (configuration not stated)
NF-kB SEAP reporter activity (RAW-Dual [2]; [6]): 0.878
NF-kB SEAP reporter activity (RAW-Dual [2]; [7]): 0.928

CCS(=O)(=O)N1CCC(C(C)n2c(C)c(C(=O)NCc3c(OC)cc(C)[nH]c3=O)c3ccccc32)CC1 (configuration not stated) (library stock concentration (final ~1000-fold dilution): 10 mM)
NF-kB SEAP reporter activity (RAW-Dual [1]; agonist: LPS (TLR4) 0.1 ug/mL): 0.94
NF-kB SEAP reporter activity (RAW-Dual [1]; [3]): 1.02
NF-kB SEAP reporter activity (RAW-Dual [1]; [4]): 1.05
NF-kB SEAP reporter activity (RAW-Dual [1]; [5]): 0.887

CCOc1ccc(CC2NC(=O)CCSSCC(C(=O)N3CCCC3C(=O)NC(CCCN)C(=O)NCC(N)=O)NC(=O)C(CC(N)=O)NC(=O)C(C(C)O)NC(=O)C(C(C)CC)NC2=O)cc1 (configuration not stated) (library stock concentration (final ~1000-fold dilution): 10 mM water)
NF-kB SEAP reporter activity (RAW-Dual [1]; agonist: LPS (TLR4) 0.1 ug/mL): 1.22
NF-kB SEAP reporter activity (RAW-Dual [1]; [3]): 1.15
NF-kB SEAP reporter activity (RAW-Dual [1]; [4]): 1.22
NF-kB SEAP reporter activity (RAW-Dual [1]; [5]): 1.02

CCOc1ccc(CC2NC(=O)CCSSCC(C(=O)N3CCCC3C(=O)NC(CCCN)C(=O)NCC(N)=O)NC(=O)C(CC(N)=O)NC(=O)C(C(C)O)NC(=O)C(C(C)CC)NC2=O)cc1 (configuration not stated)
NF-kB SEAP reporter activity (RAW-Dual [2]; library stock concentration (final ~1000-fold dilution): 10 mM water, agonist: Imiquimod (TLR7) […]): 0.981
NF-kB SEAP reporter activity (RAW-Dual [2]; library stock concentration (final ~1000-fold dilution): 10 mM water, agonist: MPLA (TLR4) […]): 1.06
